Source: patent publication US11498899B2, “Nitrone herbicides” (FMC Corporation, priority 2016, dated 2022)

System: sedge, umbrella (small-flower umbrella sedge, Cyperus difformis)
Assay: Test B flooded paddy test, visual rating 0-100
Conditions: Flood, 250 g ai/ha, applied to paddy water, rated after 13 to 15 days

| SMILES | Sedge, Umbrella plant response rating (0 to 100 scale) |
| --- | --- |
| CC1=[N+]([O-])C(C(=O)Nc2cccc(F)c2F)C(c2ccc(C)c(C(F)(F)F)c2)C1 (racemic) [Compound 62] | 0 |
| CC1=[N+]([O-])C(C(=O)Nc2cccc(F)c2F)C(c2ccc(F)cc2)C1 (racemic) [Compound 9] | 0 |
| CC1=[N+]([O-])C(C(=O)Nc2cccc(F)c2C#N)C(c2ccc(C(F)(F)F)cc2)C1 (racemic) [Compound 34] | 0 |
| CC1=[N+]([O-])[C@H](C(=O)Nc2cccc(F)c2F)[C@@H](c2ccc(C(F)(F)F)c(F)c2)C1 (relative stereo) [Compound 61, rel-(2S,3R)—N-(2,3-Difluorophenyl)-3-[3-fluoro-4-(trifluoromethyl)phenyl]-3,4-dihydro-5-methyl-2H-pyrrole-2-carboxamide 1-oxide] | 0 |
| CC1=[N+]([O-])C(C(=O)Nc2cccc(C#N)c2F)C(c2ccc(C(F)(F)F)cc2)C1 (racemic) [Compound 28] | 0 |
| CC1=[N+]([O-])C(C(=O)Nc2cccc(F)c2F)C(c2cc(C)n(Cc3ccc(Cl)cc3)c(=O)c2)C1 (racemic) [Compound 86] | 0 |
| CC1=[N+]([O-])C(C(=O)Nc2cccc(F)c2F)C(c2ccc(C(F)(F)F)c(Cl)c2)C1 (racemic) [Compound 102] | 0 |
| CC1=[N+]([O-])C(C(=O)Nc2cccc(F)c2F)C(c2cccc(C(F)(F)F)n2)C1 (stereo not shown) [Compound 90] | 0 |
| CC1=[N+]([O-])C(C(=O)Nc2cccc(F)c2F)C(c2ccc3c(c2)OCO3)C1 (racemic) [Compound 4] | 0 |
| CC1=[N+]([O-])C(C(=O)Nc2cccc(F)c2F)C(c2cccc(C#N)c2)C1 (racemic) [Compound 23] | 0 |
| CC1=[N+]([O-])C(C(=O)Nc2cccc(F)c2F)C(c2cc(F)c(C(F)(F)F)c(F)c2)C1 (racemic) [Compound 114] | 0 |
| CC1=[N+]([O-])[C@@H](C(=O)Nc2cccc(F)c2F)[C@H](c2ccc(C(F)(F)F)cc2)C1 (relative stereo) [Compound 2, trans-N-(2,3-difluorophenyl)-3,4-dihydro-5-methyl-3-[4-(trifluoromethyl)phenyl]-2H-pyrrole-2-carboxamide 1-oxide] | 0 |
| CC1=[N+]([O-])C(C(=O)Nc2cccc(F)c2F)C(c2ccc(Br)cn2)C1 (racemic) [Compound 66] | 0 |
| CC1=[N+]([O-])C(C(=O)Nc2cccc(F)c2F)C(c2cc(C)c(F)c(C)c2)C1 (racemic) [Compound 111] | 0 |
| CC1=[N+]([O-])C(C(=O)Nc2cccc(F)c2F)C(c2cc(C)cc(F)c2)C1 (racemic) [Compound 103] | 0 |
| CC1=[N+]([O-])C(C(=O)Nc2cccc(F)c2F)C(c2ccc(C(F)(F)F)cn2)C1 (racemic) [Compound 88] | 0 |
| CC1=[N+]([O-])C(C(=O)Nc2cccc(F)c2F)C(c2ccc(Cl)c(C(F)(F)F)c2)C1 (racemic) [Compound 104] | 0 |
| CC1=[N+]([O-])C(C(=O)Nc2cccc(F)c2F)C(c2cccc(Oc3ccc(F)cc3)c2)C1 (racemic) [Compound 58] | 0 |
| CC1=[N+]([O-])C(C(=O)Nc2cccc(F)c2F)C(c2ccc(C(F)(F)F)c(C)c2)C1 (racemic) [Compound 87] | 60 |
| CC1=[N+]([O-])C(C(=O)Nc2cccc(F)c2F)C(c2ccccc2)C1 (racemic) [Compound 16] | 0 |
| CC1=[N+]([O-])C(C(=O)Nc2cccc(F)c2F)C(c2cc(C)cc(C(F)(F)F)c2)C1 (stereo not shown) [Compound 92] | 25 |
| CC1=[N+]([O-])C(C(=O)Nc2cccc(F)c2F)C(c2cccc(C(C)C)c2)C1 (racemic) [Compound 12] | 0 |
| CCC1=[N+]([O-])C(C(=O)Nc2cccc(F)c2F)C(c2ccc(C(F)(F)F)cc2)C1 (racemic) [Compound 120] | 0 |
| CC1=[N+]([O-])C(C(=O)Nc2cccc(F)c2Cl)C(c2ccc(C(F)(F)F)cc2)C1 (racemic) [Compound 31] | 0 |
| CC1=[N+]([O-])C(C(=O)Nc2ccccc2C(F)(F)F)C(c2ccc(C(F)(F)F)cc2)C1 (racemic) [Compound 33] | 0 |

| SMILES | Sedge, Umbrella plant response rating (0 to 100 scale) |
| --- | --- |
| CC1=[N+]([O-])C(C(=O)Nc2cccc(F)c2F)C(c2ccc(Br)cc2)C1 (racemic) [Compound 20] | 0 |
| CC1=[N+]([O-])[C@@H](C(=O)Nc2cccc(F)c2F)[C@H](c2cccc(OC(C)C)c2)C1 [Compound 55] | 0 |
| CC1=[N+]([O-])[C@H](C(=O)Nc2cccc(F)c2F)[C@@H](c2ccc(C)cc2)C1 [Compound 42, (2S,3R)—N-(2,3-Difluorophenyl)-3,4-dihydro-5-methyl-3-(4-methylphenyl)-2H-pyrrole-2-carboxamide 1-oxide] | 0 |
| CC1=[N+]([O-])[C@@H](C(=O)Nc2cccc(F)c2F)[C@H](c2ccc(Cl)cc2)C1 (relative stereo) [Compound 5, trans-3-(4-chlorophenyl)-N-(2,3-difluorophenyl)-3,4-dihydro-5-methyl-2H-pyrrole-2-carboxamide 1-oxide] | 0 |
| CC1=[N+]([O-])C(C(=O)Nc2ccc(F)c(F)c2F)C(c2ccc(C(F)(F)F)cc2)C1 (racemic) [Compound 38] | 0 |
| CC1=[N+]([O-])C(C(=O)Nc2cccc(F)c2F)C(c2cccc(Oc3ncc(Cl)cn3)c2)C1 (racemic) [Compound 115] | 0 |
| CC1=[N+]([O-])C(C(=O)Nc2cccc(F)c2F)C(c2ccc(C(F)(F)F)nc2)C1 (racemic) [Compound 60] | 0 |
| CC1=[N+]([O-])[C@@H](C(=O)Nc2cccc(F)c2F)[C@H](c2cccc(Oc3ncc(F)cc3F)c2)C1 [Compound 70] | 0 |
| CC1=[N+]([O-])C(C(=O)Nc2cccc(F)c2F)C(c2cccc(Cl)c2)C1 (racemic) [Compound 3] | 0 |
| CC1=[N+]([O-])C(C(=O)Nc2cccc(F)c2F)C(c2ccc(F)c(Oc3ccc(F)cn3)c2)C1 (racemic) [Compound 48] | 0 |
| COc1cc(C)cc(C2CC(C)=[N+]([O-])C2C(=O)Nc2cccc(F)c2F)c1 (stereo not shown) [Compound 91] | 0 |
| COc1cc(OC)cc(C2CC(C)=[N+]([O-])C2C(=O)Nc2cccc(F)c2F)c1 (stereo not shown) [Compound 96] | 0 |
| CC1=[N+]([O-])C(C(=O)Nc2cccc(F)c2F)C(c2cc(C(F)(F)F)cc(C(F)(F)F)c2)C1 (racemic) [Compound 110] | 0 |
| CC1=[N+]([O-])[C@H](C(=O)Nc2cccc(F)c2F)[C@@H](c2ccc(C(F)(F)F)cc2)C1 [Compound 30, (2S,3R)—N-(2,3-difluorophenyl)-3,4-dihydro-5-methyl-3-[4-(trifluoromethyl)phenyl]-2H-pyrrole-2-carboxamide 1-oxide] | 0 |
| CC1=[N+]([O-])[C@H](C(=O)Nc2ccc(F)nc2F)[C@@H](c2ccc(C(F)(F)F)cc2)C1 (relative stereo) [Compound 37, rel-(2S,3R)—N-(2,6-Difluoro-3-pyridinyl)-3,4-dihydro-5-methyl-3-[4-(trifluoromethyl)phenyl]-2H-pyrrole-2-carboxamide 1-oxide] | 0 |
| CC1=[N+]([O-])C(C(=O)Nc2cccc(F)c2F)C(c2cc(C)cc(Cl)c2)C1 (stereo not shown) [Compound 94] | 0 |
| CC1=[N+]([O-])C(C(=O)Nc2cccc(F)c2F)C(c2ccc(Cl)c(F)c2)C1 (racemic) [Compound 107] | 0 |
| CC1=[N+]([O-])C(C(=O)Nc2cccc(F)c2F)C(c2ccc(F)cc2Oc2ncc(F)cn2)C1 (racemic) [Compound 68] | 0 |
| CC1=[N+]([O-])C(C(=O)Nc2cccc(F)c2F)C(c2ccc(OC(F)(F)F)c(F)c2)C1 (racemic) [Compound 113] | 0 |
| CC1=[N+]([O-])[C@H](C(=O)Nc2cccc(F)c2F)[C@@H](c2ccc(F)c(OC(F)(F)C(F)F)c2)C1 [Compound 54, (2S,3R)—N-(2,3-Difluorophenyl)-3-[4-fluoro-3-(1,1,2,2-tetrafluoroethyoxy)phenyl]-3,4-dihydro-5-methyl-2H-pyrrole-2-carboxamide 1-oxide] | 0 |
| CC1=[N+]([O-])C(C(=O)Nc2cccc(F)c2F)C(c2c(F)cccc2Cl)C1 (racemic) [Compound 14] | 0 |
| COc1ccc(C2CC(C)=[N+]([O-])C2C(=O)Nc2cccc(F)c2F)cc1C(F)(F)F (racemic) [Compound 74] | 0 |
| CC1=[N+]([O-])C(C(=O)Nc2cccc(F)c2F)C(c2cccc(Cl)c2C)C1 (racemic) [Compound 117] | 0 |
| CC1=[N+]([O-])C(C(=O)Nc2cccc(F)c2F)C(c2cc(C(F)(F)F)ccc2C)C1 (stereo not shown) [Compound 98] | 0 |
